PubChem BioAssay AID485344 (National Center for Advancing Translational Sciences (NCATS), 2010)
About 6,900 (2%) of roughly 340,000 compounds were called active. No stated cut-off is given here; in the data, active means inhibition above about 30%; inactive means below that, where a call was filed. The list shows a part of the results, in another mix than the full data. Entries without a call were filed so in the source. The source holds several records for some structures; these can differ, active in one and inactive in another.

These compounds were tested against D(2) dopamine receptor (Homo sapiens) (UniProt P14416) (assay: HTS Assay for Allosteric Antagonists of the Human D2 Dopamine Receptor: Primary Screen for Antagonists). Conditions: HEK293 TREx D2 cells, calcium flux, dopamine EC80; at 10 µM; stronger effect = higher value.
Outline: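 HEK293 T-REx D2 cells, tet-induced, calcium dye no-wash. Cpd pintool add, 180 s kinetic, then EC80 DA, 180 s kinetic. Ca flux read.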
Further: 0% is about no effect.

Sequence of UniProt P14416 (P14416 whole entry, looked up): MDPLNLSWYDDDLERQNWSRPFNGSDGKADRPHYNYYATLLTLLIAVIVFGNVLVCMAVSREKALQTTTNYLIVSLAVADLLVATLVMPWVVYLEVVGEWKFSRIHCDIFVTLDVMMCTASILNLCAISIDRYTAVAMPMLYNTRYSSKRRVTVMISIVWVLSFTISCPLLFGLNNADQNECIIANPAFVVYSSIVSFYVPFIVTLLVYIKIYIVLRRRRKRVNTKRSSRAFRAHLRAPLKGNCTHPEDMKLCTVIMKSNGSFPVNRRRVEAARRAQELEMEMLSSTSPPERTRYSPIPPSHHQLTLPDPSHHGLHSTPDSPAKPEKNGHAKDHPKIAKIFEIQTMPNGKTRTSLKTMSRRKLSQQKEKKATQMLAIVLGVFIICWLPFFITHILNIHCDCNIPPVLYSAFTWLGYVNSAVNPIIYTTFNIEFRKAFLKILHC

Compound	inhibition
OC(CN1CCN(c2ccccc2Cl)CC1)c1ccccc1 (stereo not given)	active: 86%
COc1ccc(-c2cc(C(F)(F)F)nc(SCC(=O)N(C)Cc3ccccc3)n2)cc1	8.64%
COc1ccc(Cl)cc1NC(=O)NC(C)C(C)(C)C (stereo not given)	active: 34.2%
Cn1nc(C(=O)NCc2ccccc2Cl)c2c1-c1ccccc1SC2	12.5%
Cc1oc(-c2ccccc2F)nc1CS(=O)(=O)CC(=O)NCCCN(C)C1CCCCC1	active: 45.2%
CCN(CC)c1nn2c(=O)c(C(=O)NCc3ccccc3Br)cnc2s1	9.21%
COc1cc(OC)c2c(C)c(CC(=O)NCc3ccccc3OC)c(=O)oc2c1	14%
CCOc1ccc(NC(=O)N2CCN(C(=O)c3nsc4ccccc34)CC2)cc1	-19.8%
O=C(NCCc1ccc(Cl)cc1)c1cc2c(s1)-c1ccccc1OC2	4.54%
COc1ccc(Cl)cc1NC(=O)CN(C)C(=O)c1cn(-c2ccccc2)nc1-c1cccnc1	active: 44.3%
Cc1cccc(NC(=O)c2ccc(Cn3nc(N4CCN(c5ccccc5)CC4)ccc3=O)o2)c1C	-6.72%
COc1ccc(CCNC(=O)c2cc(=O)[nH]c3ccc(S(=O)(=O)N4CCCCC4)cc23)cc1OC	-6.75%
CCOc1ccc(NC(=O)C2CCC(CNS(=O)(=O)c3ccc4c(c3)CCCC(=O)N4)CC2)cc1 (stereo not given)	1.3%
CCN(c1cc(C)cc(C)c1)S(=O)(=O)c1nnc(NC(=O)c2ccccc2C)s1	6.65%
Cc1ccc(N(CC(=O)N2CCN(c3cccc(C)c3C)CC2)S(=O)(=O)c2c(C)nn(C)c2C)cc1	5.69%
CC(=O)Nc1c(C)nn(-c2ccccc2)c1N1CCC(C(=O)NCc2cccc(F)c2)CC1	-1.59%
CC(C)OCCCn1c(SCc2ccccc2Cl)nc2c(sc3ccccc32)c1=O	3.28%
CCOc1ccc(NC(=O)CSc2cn(CC(=O)N3CCOCC3)c3ccccc23)cc1	-1.63%
CCC(Cc1ccccc1)NC(=O)c1cccc(Nc2nc3ccccc3nc2-n2nc(C)cc2C)c1 (stereo not given)	10.7%
COc1ccc(C(=O)NCc2ccc3c(c2)CCN3C(=O)c2ccc(Cl)cc2)c(OC)c1	8.86%

Compound	inhibition
COc1cc(OC)cc(C(=O)Nc2cccc(-c3cn4ccsc4n3)c2)c1	-3.75%
CCc1cccc(C)c1NC(=O)c1cc(S(=O)(=O)N2CCN(c3ccccc3)CC2)ccc1F	-17.5%
CCOC(=O)c1cc2c(=O)n3ccccc3nc2n(C(C)C)c1=NC(=O)c1c(-c2c(F)cccc2Cl)noc1C	-1.31%
Cc1cccc(CCNC(=O)CCc2c(C)nc3c(c(C)nn3-c3ccccc3)c2C)c1	6.73%
COc1ccc2c(c1)CC(C(=O)Nc1cc(OC)c(OC)c(OC)c1)CO2 (stereo not given)	23.3%
COc1ccc(Cl)cc1NC(=O)CCn1nc(C)cc1C	-4.26%
CN(C)c1ccc(C(=O)NCc2ccc3c(c2)CCN3C(=O)c2ccc(Cl)cc2)cc1	-23.5%
CN1C(=O)c2ccccc2Sc2ccc(NC(=O)N3CCN(c4cccc(Cl)c4)CC3)cc21	24.2%
Clc1ccc(CNc2ncnc3onc(-c4ccc(Cl)cc4)c23)cc1	8.47%
Cc1c(CN2CCCC(C(=O)Nc3cccc(-n4cccn4)c3)C2)cnn1C (stereo not given)	active: 46.6%
Cc1ccc(C)c(N2CCN(S(=O)(=O)c3ccc4c(c3)n(C)c(=O)c(=O)n4C)CC2)c1	-12.1%
CCOC(=O)c1c(-c2ccccc2)csc1NC(=O)c1cc(-c2cccc(Cl)c2)on1	-16%
O=C(NCc1ccccc1)c1ccc(Cn2c(=O)c3cccn3c3cccnc32)cc1	22%
CC(=O)c1cccc(NC(=O)c2ccc3c(c2)c(C)c(C)n3Cc2ccc(Cl)cc2)c1	16.1%
COc1cc(OC)c(NC(=O)CSCc2nc(-c3ccc(OC)c(OC)c3)no2)cc1Cl	-5.61%
COCCCC/C(=N\OCCN)c1ccc(C(F)(F)F)cc1	active: 53.9%
CN(Cc1ccccc1)S(=O)(=O)c1ccc(F)c(C(=O)Nc2cc(Cl)cc(Cl)c2)c1	-0.93%
O=C(Nc1cc(-c2nc3cc(Cl)ccc3o2)ccc1Cl)c1cc2ccccc2o1	-8.25%
CCn1cc(C(=O)NCCCOC(C)C)c(=O)c2cc(S(=O)(=O)N(C)C3CCCCC3)ccc21	6.51%
Cc1cccc(Nc2cc(C)nc3nc(Cc4ccc(Cl)cc4)nn23)c1	-6.62%

Compound	inhibition
CCOC(=O)c1ccc(NC(=O)Cn2cc(S(=O)(=O)Cc3ccccc3F)c3ccccc32)cc1	10.2%
O=C(NCCN1CCN(c2ccccc2)CC1)c1ccccc1F	active: 72.2%
COc1ccc(CNC(=O)c2ccc3c(Cl)c4c(nc3c2)CCCC4)c(OC)c1	19.1%
Cc1nc(SCC(=O)Nc2ccc(Cl)cc2C(F)(F)F)[nH]c(=O)c1Cc1ccccc1	-3.79%
COc1ccccc1CCNC(=O)C(=O)NCC1OCCCN1S(=O)(=O)c1cc(C)ccc1C (stereo not given)	active: 33.9%
Cc1ccc(Cn2cc3c(n2)-c2c(oc(C(=O)Nc4ccc(F)cc4F)c2C)CC3)cc1	-5.17%
CCOc1ccccc1CNC(=O)c1ccc2nc(CCc3ccccc3)oc2c1	13.7%
CCc1nn2c(=O)cc(COC(=O)c3cccs3)nc2s1	11%
CCOc1ccccc1NC(=O)CN1Cc2ccccc2C1=O	-1.39%
COC(=O)c1ccc(CN(Cc2ccc(OC)c(OC)c2)S(=O)(=O)c2ccc(F)c(C(=O)Nc3cc(C)ccc3C)c2)cc1	-4.11%
Cc1cccc(C(=O)NCC(=O)OCc2cc(=O)n3nc(C)sc3n2)c1	4.85%
CC(Oc1ccccc1)C(=O)Nc1ccc(C(=O)OCc2cc(=O)n3ccsc3n2)cc1 (stereo not given)	-1.98%
N#Cc1nc(/C=C/c2ccc(F)cc2)oc1N1CCCCC1	13.9%
COc1ccc(N(C(=O)c2ccccc2OC(C)=O)C(C)C2CC2)cc1 (stereo not given)	active: 30.5%
CCOc1ccc(C(c2c(C)[nH]n(-c3ccccc3)c2=O)c2c(C)[nH]n(-c3ccccc3)c2=O)cc1OC	-3.33%
CCN(CC)CCNC(=O)c1ccc2c(=O)n3nc(Nc4cccc(Cl)c4C)sc3nc2c1	0.73%
COc1ccc(-c2nsc(NC(=O)c3cccc(OC)c3)n2)cc1	-20.7%
CCc1ccc(-c2cn3c(n2)sc2cc(C(=O)NCCCc4ccccc4)ccc23)cc1	13.6%
CCOc1cccc2cc(-c3nc(-c4ccc(Cl)cc4)c(C)s3)c(=O)oc12	2.34%
CCCn1c(N)c(N(CCOC)C(=O)c2ccccc2)c(=O)[nH]c1=O	active: 55.4%
